Results taken from PubChem BioAssay AID488969 (Vanderbilt High Throughput Screening Facility, 2010).
Over roughly 110,000 compounds, “z-score” has its median near -0.1; the highest 2% begin near 2. Some of the results follow. Activity calls are given as the source filed them.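 How the source made its calls: active means z-score in the third read window above 3 or below -3; inactive means the rest.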

These compounds were tested against Metabotropic glutamate receptor 8 (Rattus norvegicus) (UniProt P70579) (assay: mGluR8 Gi/Go-coupled signaling modulation – cell-based, rat, thallium flux, HTS, primary screen (AID 488969)). Conditions: HEK293 rat mGluR8, GIRK (G protein-gated inwardly rectifying potassium channel) thallium flux, FluoZin2; at 10 µM; stronger effect = higher value; submaximal glutamate (EC20) added with thallium.
UniProt P70579, sequence (P70579 whole entry, looked up): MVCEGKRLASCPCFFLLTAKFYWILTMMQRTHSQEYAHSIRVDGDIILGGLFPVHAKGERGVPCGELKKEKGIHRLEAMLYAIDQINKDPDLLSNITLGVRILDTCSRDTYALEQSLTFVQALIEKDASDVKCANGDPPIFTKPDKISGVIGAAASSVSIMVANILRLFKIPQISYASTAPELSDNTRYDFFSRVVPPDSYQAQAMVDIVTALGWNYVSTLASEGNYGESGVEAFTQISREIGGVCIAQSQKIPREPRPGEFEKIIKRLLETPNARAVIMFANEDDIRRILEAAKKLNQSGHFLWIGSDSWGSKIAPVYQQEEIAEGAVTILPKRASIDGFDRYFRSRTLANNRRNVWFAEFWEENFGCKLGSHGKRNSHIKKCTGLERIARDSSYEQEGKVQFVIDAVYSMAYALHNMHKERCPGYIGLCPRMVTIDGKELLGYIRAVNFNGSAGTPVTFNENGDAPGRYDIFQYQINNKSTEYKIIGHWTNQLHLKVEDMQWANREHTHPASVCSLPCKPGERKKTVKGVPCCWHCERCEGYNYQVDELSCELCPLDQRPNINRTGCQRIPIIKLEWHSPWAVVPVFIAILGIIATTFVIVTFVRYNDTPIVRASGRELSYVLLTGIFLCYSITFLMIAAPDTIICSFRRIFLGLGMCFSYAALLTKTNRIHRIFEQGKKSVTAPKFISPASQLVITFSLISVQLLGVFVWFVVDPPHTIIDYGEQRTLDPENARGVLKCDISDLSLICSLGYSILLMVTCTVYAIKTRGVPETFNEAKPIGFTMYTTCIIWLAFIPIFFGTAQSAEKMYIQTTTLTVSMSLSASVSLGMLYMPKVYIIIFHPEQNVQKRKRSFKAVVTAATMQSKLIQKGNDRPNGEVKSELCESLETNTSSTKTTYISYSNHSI
`CC(C)(C)c1ccc(S(=O)(=O)NCc2ccc(C(=O)NCc3ccccn3)cc2)cc1` gave a z-score of -0.161.
For `CCOC(=O)CNc1c(-c2ccc(OC)cc2)nc2ccc(Cl)cn12`, the z-score was -0.861.
Work on `O=C(CCCSc1nc2ccccc2[nH]1)NCc1ccco1` yielded a z-score of -1.07.
With `Cc1ccc(C2CC2C(=O)NNC(=S)Nc2cccc(C)c2)cc1` (centres undefined) the z-score was active: 3.29.
`Cc1noc(N)c1C(=O)Nc1ccc(C(C)(C)C)cc1` showed a z-score of -0.0712.
With `O=C(Oc1c(Cl)cc(Cl)c2cccnc12)c1ccco1` the z-score was active: 3.13.
Work on `O=C(Nc1nc2ccccc2s1)c1ccc(N2CCCCC2)c([N+](=O)[O-])c1` yielded a z-score of -0.00648.
`Cc1noc(COc2ccccc2OCc2onc(C)c2Cl)c1Cl` showed a z-score of -0.126.
`CC(C)Cn1c(/C=C/c2ccco2)nc2ccccc21` showed a z-score of -0.264.
Work on `Cc1ccn2c(CN3CCOCC3)c(-c3ccccc3)nc2c1` yielded a z-score of -0.0116.
Compound `COc1cc(CCC(=O)Nc2ccc(C)c(S(=O)(=O)N(C)C)c2)cc(OC)c1OC` has a z-score of -0.5.
`C/C(CC1CC2=C(CC1(C)C)C(C)(C)CCC2)=N\NC(N)=S` (centres undefined) showed a z-score of 0.599.
In the case of `CC(=O)c1cc(C#N)c(SCC(=O)OC(C)C)nc1C`, the z-score was -0.466.
In the case of `CC1(C)CC(=O)C2=C(C1)N(c1ccccc1)C(N)=C(C#N)C2c1cccnc1` (centres undefined), the z-score was -0.394.
In the case of `CCOCCn1c(CN2CCN(c3ccc(OC)cc3)CC2)nc2c1c(=O)n(C)c(=O)n2C`, the z-score was -0.366.
`C/C(=N\OC(=O)c1ccc(Br)cc1)c1ccccn1` was tested, and the z-score was 0.167.
`COc1ccc(/C=N/Nc2nnc(Cc3ccc(OC)c(OC)c3)c(=O)[nH]2)cc1OC` was tested, and the z-score was -0.159.
In the case of `Cc1cc2c3c(c1)C1(C(=O)N3C(C)(C)CC2C)C(C#N)=C(N)OC2=C1C(=O)CC(C)(C)C2` (centres undefined), the z-score was 0.0667.
`Cc1cccc(-c2nc3ccccc3c(=O)n2NC(=O)c2cccnc2Cl)c1` gave a z-score of -0.115.
`COC(=O)CN1C(c2ccccc2O)Nc2ccc(Br)cc2C1c1ccccc1` (centres undefined) showed a z-score of -0.181.
In the case of `Cc1ccc(NC(=O)c2ccc(S(=O)(=O)N3CCC(C)CC3)cc2)cc1`, the z-score was -0.171.
With `Cc1cccc(N/C(=N\S(=O)(=O)c2ccccc2)C(F)(F)F)c1` the z-score was -0.178.
Compound `CCOC(=O)N1CCC(N(CCN(C)C)C(=S)Nc2ccccc2C)CC1` has a z-score of -0.427.
Work on `CCOC(=O)CC(=O)CSc1nc(N)c(C#N)c(-c2ccc(Cl)cc2)c1C#N` yielded a z-score of -0.118.
With `CC(C)CN(C(=O)CN1CCN(c2ccccc2F)CC1)c1c(N)n(CC(C)C)c(=O)[nH]c1=O` the z-score was -0.397.
Compound `COc1ccc(OC)c(NC(=O)C2CCN(S(=O)(=O)c3c(C)noc3C)CC2)c1` has a z-score of -0.208.
For `O=C(NCCc1nc2ccccc2[nH]1)/C(=C/c1ccc2c(c1)OCO2)NC(=O)c1ccc(Cl)cc1Cl`, the z-score was -0.517.
`Cc1cc(C(F)(F)F)c(C#N)c(SCC(=O)Nc2nc3cc(Br)ccc3s2)n1` showed a z-score of -0.218.
`CCNc1nc(NC(C)C)nc(Oc2ccc(OCc3ccccc3)nn2)n1` was tested, and the z-score was -0.842.
In the case of `COc1cccc(C(c2nnnn2Cc2ccco2)N2CCN(c3cccc(C)c3C)CC2)c1OC` (centres undefined), the z-score was -0.191.
`c1cc2c(cc1CN1CCOCC1)OCO2` showed a z-score of -0.0852.
In the case of `CCCCn1c(Cc2ccccc2)n[nH]c1=S`, the z-score was 0.576.
With `CCOc1nc(-c2ccc(C)cc2)ccc1-c1noc(COC)n1` the z-score was -0.156.
For `CC(=O)N1CCN(S(=O)(=O)c2ccc(S(=O)(=O)NCC(C)C)cc2)CC1`, the z-score was -0.0339.
Compound `CCOC(=O)C1=C(C)N=C2SCCC(=O)N2C1c1cccs1` (centres undefined) has a z-score of -0.357.
Work on `CCCCCCCOc1ccc(OC(=O)c2cccnc2)cc1` yielded a z-score of 0.168.
`COc1cccc(-n2c(SCC(=O)N3CCOCC3)nc3c([nH]c4ccccc43)c2=O)c1` was tested, and the z-score was 0.788.
`CN(CC(=O)Nn1cnnc1)S(=O)(=O)c1cc(Cl)ccc1Cl` showed a z-score of -0.476.
With `CCCOc1ccc2c3c(c(=O)oc2c1OCCC)CCCC3` the z-score was 0.312.
`COc1cc2c(cc1NCc1ccccn1)oc1ccccc12` was tested, and the z-score was -0.0883.
In the case of `CC(NC(=O)c1cccs1)C(=O)NC1=NCCS1` (centres undefined), the z-score was -0.526.
Compound `COc1cccc(NC(=O)CN2CCN(c3ccc(F)cc3)CC2)c1` has a z-score of -1.23.
Compound `CCOc1ccccc1-n1c(SCC(=O)N2CCCc3ccccc32)nnc1-c1cccnc1` has a z-score of -0.703.
`CCN(CC)c1nc(N)c([N+](=O)[O-])c(NCCO)n1` was tested, and the z-score was -0.415.
For `Cc1ccc(NC(NC(=O)Cc2ccccc2)C(Cl)(Cl)Cl)cc1` (centres undefined), the z-score was 0.671.
For `CCOC(=O)/C=C1\SCC(=O)N1Cc1ccc(Br)cc1`, the z-score was -0.326.
With `COc1ccc(N2CCN(C(=O)c3ccc(CS(=O)(=O)c4ccc(OC)cc4)o3)CC2)cc1` the z-score was -0.067.
Work on `COc1cc(OC)cc(C(=O)NCC(=O)OCC(=O)C(C)(C)C)c1` yielded a z-score of 0.0807.
Work on `Cc1cc(=O)oc2cc(OCC#N)ccc12` yielded a z-score of -0.163.
For `CCc1ccc(S(=O)(=O)NCCc2cn3ccsc3n2)s1`, the z-score was 0.135.
`CCOC(=O)CSc1nnc(NC(=O)c2cccc(S(=O)(=O)N3CCCCCC3)c2)s1` showed a z-score of -0.31.
`Cc1cc(=O)[nH]c(SCc2nc3ccc([N+](=O)[O-])cc3[nH]2)n1` showed a z-score of -0.173.
`Cc1cccc(C(C)(C)C)c1OCCOCCN1CCCC1` gave a z-score of 0.391.
With `Cc1cccc(OCc2nnc(NC(=O)c3cccs3)s2)c1` the z-score was -0.0598.
`CCc1cccc(C)c1NC(=O)CSc1nc2ccc(N3C(=O)c4ccccc4C3=O)cc2s1` showed a z-score of -0.494.
Work on `COCCCNC(=S)NC(=O)c1ccccc1` yielded a z-score of -0.0478.
`CNCc1ccccc1Sc1ccc(O)c(O)c1` was tested, and the z-score was 0.113.
Compound `Cc1ccc(-c2c(C#N)c(N)n(-c3ccc(C)cc3)c(=O)c2C#N)cc1` has a z-score of -0.0302.
For `Cc1c(C)c2cc3c4c(oc3c(C)c2oc1=O)CCCC4`, the z-score was -0.354.
In the case of `O=C(COC(=O)CN1C(=O)C2CCCCC2C1=O)NC1CCS(=O)(=O)C1` (centres undefined), the z-score was -0.413.
Work on `CCN(CC)S(=O)(=O)c1cccc(C(=O)/C=C2/N(C)c3ccccc3C2(C)C)c1` yielded a z-score of -0.269.
`O=C(O)c1nn2c(C(F)(F)F)cc(-c3cccs3)nc2c1Cl` was tested, and the z-score was -0.169.
Work on `COc1ccc(N(C(=O)c2cccc(OC)c2OC)C2C=CS(=O)(=O)C2)c(OC)c1` (centres undefined) yielded a z-score of -0.127.
With `CC(C)Oc1ccc(CN=C(N)N=C(N)N)cc1Cl` the z-score was -0.171.
With `CCC(C)C(=O)Nc1c2c(nc3c1CCC3)CCCC2` (centres undefined) the z-score was -0.0844.
`Cc1ccc(-n2c(C)cc(/C=N\NC(=O)CC(=O)NC(C)C)c2C)cc1` showed a z-score of 0.919.
For `CCCCn1c(SCC(=O)c2ccccc2)nc2ccsc2c1=O`, the z-score was -0.633.
Work on `CCCc1cc(=O)[nH]c(SC(CC)C(=O)Nc2ccccc2C#N)n1` (centres undefined) yielded a z-score of -0.143.
In the case of `CCCCOC(=O)Nc1ccc(C(C)C)cc1`, the z-score was -0.173.
Compound `Cc1ccc(Oc2ccccc2/C=C2\SC(=O)N(C)C2=O)cc1` has a z-score of 0.131.
For `CCOc1ccc(NCCC#N)cc1`, the z-score was 0.967.
`Nn1c(Cc2ccccc2F)nnc1SCCOc1ccc(Cl)cc1` gave a z-score of -0.221.
`CC1(C)COC(c2ccc(F)c([N+](=O)[O-])c2)=N1` was tested, and the z-score was -0.176.
Compound `O=C(CP(=O)(CO)CO)c1ccc(Cl)cc1` has a z-score of 0.307.
Compound `Cc1ccc(S(=O)(=O)N2CCCC2C(=O)Nn2cnnc2)cc1` (centres undefined) has a z-score of 0.562.
`O=C(CSc1nnc(COc2ccccc2)o1)N1CCN(c2ccccc2)CC1` showed a z-score of -0.404.
For `O=C(Nc1ccc2oc(-c3cccc(F)c3)nc2c1)c1ccccc1F`, the z-score was -0.302.
In the case of `O=C(CCn1nc(-c2ccccc2)ccc1=O)N1CCCC1`, the z-score was 0.688.
`Cc1ccc(S(=O)(=O)N(C(=O)c2ccncc2)c2ccc3oc4c(c3c2)CCCC4)cc1[N+](=O)[O-]` gave a z-score of 0.393.
`Cc1cc(C(=O)CSc2nnc(-c3ccc(Cl)cc3)n2C)c(C)n1CC1CCCO1` (centres undefined) gave a z-score of -0.132.
Work on `CCN1CCN(C(=O)c2nn(-c3ccccc3)c(=O)c3ccccc23)CC1` yielded a z-score of -0.208.
`CCCCCn1c(CN2CCN(Cc3ccccc3)CC2)nc2c1c(=O)n(C)c(=O)n2C` gave a z-score of -0.501.
`O=C(c1ccccc1)N1CCN(C(=O)c2ccncc2)CC1` showed a z-score of 0.313.
Work on `COc1ccc(C(=O)Nc2ccc(C(=O)OCC(=O)c3cccc4ccccc34)cc2)cc1` yielded a z-score of -0.213.
`CC(C)c1nc(C#N)c(NCCCn2ccnc2)o1` gave a z-score of 0.481.
In the case of `Cc1cccc(NC(=S)Nc2ccc(Br)cc2)c1`, the z-score was 0.413.
With `O=C(/C=C/c1ccccc1)Nc1cc(S(=O)(=O)N2CCOCC2)ccc1N1CCCC1` the z-score was -0.369.
`Cc1ccc(-n2c3c(cc(C(=O)NC4CCSC4=O)c2=O)C(=O)CC(C)(C)C3)cc1` (centres undefined) gave a z-score of 0.499.
Work on `O=C(NNc1ccc([N+](=O)[O-])cc1)C1C2CCCCC21` (centres undefined) yielded a z-score of 0.0673.
With `CCOC(=O)Cc1csc(N/N=C\c2cccc(Br)c2)n1` the z-score was -0.205.
`COc1cc(C2C(C#N)=C(N)N(Nc3ccccc3)C3=C2C(=O)CC(C)(C)C3)ccc1OCc1cccc(F)c1` (centres undefined) gave a z-score of -0.0381.
In the case of `Cn1c(CC(=O)NC(C)(C)CO)c(Sc2ccccc2)c2ccccc21`, the z-score was -0.552.
Compound `O=C(NC(=O)c1ccccc1)NC(=O)c1ccccc1` has a z-score of 0.327.
`COc1ccc(S(=O)(=O)Nc2nnc(C(C)C)s2)cc1` gave a z-score of -0.251.
With `CCCCOc1ccc(-c2nc(SCC(N)=O)n[nH]2)cc1` the z-score was -0.135.
Work on `CC/C=C/C(=O)N1CC2(CC(c3cccc(NC(=O)c4ccccc4)c3)=NO2)C[C@@H]1C(N)=O` (some centres undefined) yielded a z-score of -0.33.
Compound `COCCN1CN(S(=O)(=O)c2ccccc2)c2nc3ccccc3nc21` has a z-score of -0.27.
In the case of `O=c1c2c3c(sc2n2cnnc2n1Cc1ccccc1)CN(Cc1ccccc1)CC3`, the z-score was -0.849.
`O=C(NCc1cccs1)c1ccc2c(c1)ncn2C1CCCC1` gave a z-score of -0.256.
`CSc1cc(N2CCOCC2)nc(-c2ccccc2Cl)n1` gave a z-score of -0.837.
In the case of `CCOC(=O)C1CCN(Cc2c(O)ccc3ccccc23)CC1`, the z-score was -0.762.
Compound `NC(=O)C1CCCN(S(=O)(=O)c2ccc(Br)cc2)C1` (centres undefined) has a z-score of 0.19.
With `O=C(CNC(=O)c1cccs1)OCC(=O)c1ccc2ccccc2c1` the z-score was -0.171.
For `CCOC(=O)CC1=CC(C)(CC(=O)OCC)C(C#N)(C#N)C(N)=C1C#N` (centres undefined), the z-score was 0.433.
Work on `COc1ccc(NC(=O)c2ccccc2NC(=O)COc2ccccc2)cc1` yielded a z-score of -0.239.
In the case of `COCCCNC(=O)CSc1nc2ccccc2c(=O)n1CCCC(=O)NCC1CCCO1` (centres undefined), the z-score was 0.181.
`Fc1ccccc1C(c1nnnn1Cc1ccc2c(c1)OCO2)N1CCN(Cc2ccccc2)CC1` (centres undefined) was tested, and the z-score was 0.871.
Compound `COC(=O)Nc1nc(-c2ccccc2)c(C(=O)c2ccc(Cl)cc2)s1` has a z-score of -0.124.
In the case of `O=C(Oc1ccc2c(-c3ccccc3)cc(=O)oc2c1)C1CCCCC1`, the z-score was 0.0348.
